# Measurements taken from patent publication US9234025B2, “Extracellular allosteric inhibitor binding domain from a tyrosine kinase receptor” (SANOFI, priority 2009, dated 2016).
# How the values were obtained:
# FGFR2^∂23-H293L = molecular target: T1, FGFR2^∂23-H293L (Homo sapiens, UniProt P21802, H293L); experiment: FTIR measurement, FGFR2 H293L mutant; conditions: 100 μM SSR
# T1 construct: FGFR2^∂23 (consisting of domain D2 and 3); made in house
# Procedure: (§1) Fourier transform infrared measurements were performed using a Bruker Tensor 37 FT-IR spectrometer equipped with an AquaSpec flowcell. The sample compartment was thermostatted to 25° C., 100 spectra were averaged for a good signal to noise ratio. Proteins were purified as described above. Immediately after the gelfiltration, the proteins were dialysed overnight in the same preparation of buffer (10 mM Hepes pH 7.2, 150 mM NaCl) in the presence or absence of SSR. Dialysis buffer samples were used to substract background signal. The analysis was performed using the OPUS software package, provided by Bruker. Interpretation of the results was performed as described {Barth, 2002 #60}.
# (§2) We next explored whether SSR bound to amino acid residues that form part of the orthosteric site in D3 or to an alternative allosteric site. Initially, we used the molecular docking algorithms of the software packages MOLEGRO, Autodock and YASARA and available crystallographic data. […] These findings are consistent with a model whereby SSR binds to an allosteric site formed by a hydrophobic pocket near the orthosteric ligand binding site, and in which residue Tyr^328 seems to be critical for mediating the interaction between SSR to FGFR2. We also analyzed the FTIR spectrum of the aforementioned mutated FGFR2 fragments.
# FGFR2^∂23-YH = molecular target: T2, FGFR2^∂23-YH (Homo sapiens, UniProt P21802, H293L/Y328D); experiment: FTIR measurement, FGFR2 Y328D/H293L double mutant; conditions: FGFR2^∂23-YH double mutant; 100 μM SSR
# T2 construct: FGFR2^∂23 (consisting of domain D2 and 3); made in house
# Procedure: as §1, §2
smiles,measurement,setting,value
COc1c(C)c(C(=O)c2ccc(N)c(C(=O)[O-])c2)n2ccccc12.[Na+] [SSR],change of FTIR spectrum (conformational change),FGFR2^∂23-H293L,induced a comparable shift of the FTIR spectrum
same,change of FTIR spectrum (conformational change),FGFR2^∂23-YH,failed to induce this change
